We go through 53 compounds from PubChem BioAssay AID1645887 (National Center for Advancing Translational Sciences (NCATS), 2021).

Values joined by “and” are separate entries in the source; they are usually repeats but may differ in a detail not shown here. Identical values can stand only once. Hit rate of the full screen: of about 16,000 compounds, about 40 (0.2%) were called active. About 1% were inconclusive and are not listed. Calls come from the whole dose curve; as a rule, active = well fitted activation curve with a large enough effect; inconclusive = small, poorly fitted or top-dose-only effect, or another doubt; inactive = no such curve, though single readings can be large or run the other way. Some of the results follow.
% is set by controls: 0 for no effect and ±100 for the full control effect.

The target of this assay is Rap guanine nucleotide exchange factor 4 (Homo sapiens) (UniProt Q8WZA2). Nature of the assay: Validation qHTS for agonist of cAMP-regulated guanine nucleotide exchange factor 4 (EPAC2).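 Note: exchange makes BODIPY-GDP fluorescence drop when released from Rap1B; series mostly up to about 150 µM.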 Conditions: EPAC2 Rap1B BODIPY-GDP exchange, fluorescence; activation: stronger effect = higher value. A digest of the protocol: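 Fluorescent exchange assay: 100 nM EPAC2 with 250 nM RAP1B-BODIPY-GDP and 50 uM GDP; compound added, 5 min at room temperature, then read (ex 480/em 540 nm) every 5 min for 30 min. Normalized to 6.5 mM cAMP agonist control.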
UniProt Q8WZA2, sequence (Q8WZA2 whole entry, looked up): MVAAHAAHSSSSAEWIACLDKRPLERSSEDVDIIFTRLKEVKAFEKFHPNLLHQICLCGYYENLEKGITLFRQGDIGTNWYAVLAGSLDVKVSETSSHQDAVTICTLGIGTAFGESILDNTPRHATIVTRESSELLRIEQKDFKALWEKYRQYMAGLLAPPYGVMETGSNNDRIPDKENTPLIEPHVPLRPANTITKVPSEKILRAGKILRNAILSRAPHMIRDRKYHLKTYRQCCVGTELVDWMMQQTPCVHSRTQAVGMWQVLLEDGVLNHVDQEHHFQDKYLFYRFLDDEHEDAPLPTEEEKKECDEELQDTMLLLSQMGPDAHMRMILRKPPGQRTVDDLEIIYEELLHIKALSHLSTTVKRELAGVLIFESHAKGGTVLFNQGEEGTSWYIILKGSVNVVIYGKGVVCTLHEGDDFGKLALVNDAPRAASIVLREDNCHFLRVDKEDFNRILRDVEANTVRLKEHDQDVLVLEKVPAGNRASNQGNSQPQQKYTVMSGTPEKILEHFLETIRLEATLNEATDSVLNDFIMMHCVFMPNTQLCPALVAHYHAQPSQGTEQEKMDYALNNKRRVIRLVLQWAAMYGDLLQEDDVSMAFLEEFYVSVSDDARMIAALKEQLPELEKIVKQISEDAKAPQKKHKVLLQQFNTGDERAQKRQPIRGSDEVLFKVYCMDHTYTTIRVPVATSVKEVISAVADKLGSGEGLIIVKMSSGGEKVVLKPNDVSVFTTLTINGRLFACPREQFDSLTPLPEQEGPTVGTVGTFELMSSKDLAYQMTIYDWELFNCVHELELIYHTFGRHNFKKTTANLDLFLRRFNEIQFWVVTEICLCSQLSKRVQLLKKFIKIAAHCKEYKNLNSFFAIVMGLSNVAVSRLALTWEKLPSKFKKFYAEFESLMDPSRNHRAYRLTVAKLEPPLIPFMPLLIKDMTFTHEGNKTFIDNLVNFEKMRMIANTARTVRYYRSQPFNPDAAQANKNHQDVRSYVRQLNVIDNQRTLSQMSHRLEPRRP
With `COc1ccc(-c2ccc(C(=O)NCC3Cc4cccc(-c5nc(C)cnc5C)c4O3)o2)cc1` (stereo not drawn), the activation is inactive: -1.59%.
The result for `Cc1cccc(CNc2ncnc3ccc(-c4cccnc4)cc23)c1` reads inactive: -19.6%; that for `COc1cc2[nH]c(=O)[nH]c(=O)c2cc1OC`, inactive: -13.9%.
The result for `CC(C)NC(=O)N1CCC2(CC1)CCN(C(=O)c1ccncc1)CC2` reads inactive: -5.96%; that for `CC(O)(P(=O)(O)O)P(=O)(O)O`, inactive: -17.4%; that for `CCCCCCCCCCCCCC(=O)OC(C)C`, inactive: -4.88%.
The result for `Cn1cc(CNC2CCN(c3cccc(NC(=O)c4cccnc4)c3)CC2)cn1` reads inactive: -4.23%; that for `COc1cc(=O)n2c(c1C(=O)N(C)Cc1nccs1)CCN(Cc1c(F)ccc(F)c1F)CC2`, inactive: -10.3%.
As to `O=C(O[C@H]1[C@H](Cc2ccccc2)NS(=O)(=O)[C@H]2C[C@@H]3C=C[C@]12O3)c1ccc([N+](=O)[O-])cc1`, the activation is inactive: -23.6%.
The result for `CO/N=C(\C(=O)N[C@@H]1C(=O)N2C(C(=O)O)=C(CSc3nc(=O)c(O)nn3C)CSC12)c1csc(N)n1` (stereo partly drawn) reads inactive: -0.0986%.
Take `C(=C\c1ccnc2ccccc12)/c1ccc2ccccc2n1`: the activation is inactive: -17%.
The result for `Cn1c(-c2ccncc2)nc2cc(C(=O)N3CCCC3c3nccs3)cc(NC(=O)C3CCC3)c21` (stereo not drawn) reads inactive: 1.79%; that for `COC(C)(C)CCCC(C)C/C=C/C(C)=C/C(=O)O` (stereo not drawn), inactive: -7.06%.
On to `COc1cccc(CCNc2ncnc3sc(C(=O)N4CCOCC4)c(C)c23)c1`, for which the activation is inactive: 1.29%.
As to `c1ccc(-n2cnnn2)cc1`, the activation is inactive: -5.07%.
For the compound `COc1ccccc1N1CCN(CCn2c(=O)[nH]c3c([nH]c4ccccc43)c2=O)CC1`, the activation is inactive: -30.8% and inactive: 4.22% and inactive: -8.95%.
Turning to `Cn1c(=O)c2c(ncn2CCO)n(C)c1=O`, the activation is inactive: -9% and inactive: -0.365%.
The result for `Cc1cccc2cc(CN(CC3CCCO3)C(=O)c3ccccc3F)c(N(C)C)nc12` (stereo not drawn) reads inactive: -4.14%.
On to `c1csc(CNc2ncnc3ccc(-c4ccoc4)cc23)c1`, for which the activation is inactive: -11.4%.
The result for `CC(O)(COc1ccccc1)c1ccc2c(c1)CN(Cc1ccccn1)CCO2` (stereo not drawn) reads inactive: 9.44%.
The result for `COC(=O)CC1C(C)(C)C(O)C2CC3=C4CC(O)OC(c5ccoc5)[C@]4(C)CCC3[C@@]1(C)C2=O` (stereo partly drawn) reads inactive: -15.2%; that for `Cc1ccc2nccnc2c1`, inactive: -24.5%; that for `COc1ccccc1CNc1ccnc(-c2ccc(C(=O)N(C)C)cc2)n1`, inactive: -2.12%.
Turning to `COc1cc(-c2noc(C)c2/C=C/c2ccc(OC(C)=O)cc2)cc(OC)c1OC`, the activation was inactive: -7.04%.
Take `Nc1[nH]c(=S)[nH]c(=O)c1N`: the activation is inactive: -21.8%.
The result for `CC(CCc1ccc2c(c1)OCO2)NN` (stereo not drawn) reads inactive: 6.97%; that for `COc1ccc(C2NC(=S)N3C(c4ccc(OC)c(OC)c4)NC(=S)N23)cc1OC` (stereo not drawn), inactive: -13.4%; that for `COc1ccc(NC(=O)N2CCC3(CC2)CCN(C(=O)c2cccn2C)CC3)cc1`, inactive: -15.3%.
For `CC(=O)/C(C)=N/O`, the activation was inactive: -9.3%.
The result for `O=C(NCC1(N2CCOCC2)CCCC1)c1cnn(-c2nccc(-c3ccco3)n2)c1C1CC1` reads inactive: -16.1%; that for `O=C1CC[C@@H](C(=O)N[C@H]2C[C@@H]2c2ccccc2)N1`, inactive: -4.14%.
The result for `COC(=O)C1=C(C(=O)OC)[C@]2([C@@H]3C/C=C\CN[C@@H](Cc4ccccc4)C(=O)N3Cc3ccccc3)C=C[C@H]1O2` reads inactive: -13%.
The result for `CCCCCCCCCCCCCCCCCCCCCC(=O)Nc1ccn([C@@H]2O[C@H](CO)[C@@H](O)[C@@H]2O)c(=O)n1` reads inactive: -12.3%; that for `CC(C)NCC(O)c1cc(O)cc(O)c1` (stereo not drawn), inactive: -3.55% and inactive: -1.96% and inactive: 2.05%.
As to `O=C(O)CN(CCN(CC(=O)O)CC(=O)O)CCN(CC(=O)O)CC(=O)O`, the activation was inactive: 5.69% and inactive: -6.45%.
`CC(C)(CO)Cc1cc(C(C)(C)C)c(O)c(C(C)(C)C)c1`: the activation is inactive: -19.3% and inactive: -20%.
Take `O=C1CCC[C@@H]2Cc3nc4cc5c(cc4cc3[C@@H]3CCN1[C@H]23)OCO5`: the activation was inactive: -27.6%.
With `C#CCN(C)CCCOc1ccc(Cl)cc1Cl`, the activation is inactive: -6.2% and inactive: -15.9%.
The result for `CCc1cc2c(c(CC)n1)CCC(=O)N2Cc1ccc(-c2ccccc2-c2nn[nH]n2)cc1` reads inactive: 4.41%.
The result for `COc1ccccc1-c1cc(NCc2cccc(C)c2)ncn1` reads inactive: 26.1%.
As for `CC(C)NC(=O)N1CC2(CCN(C(=O)c3cc(C(F)(F)F)cc(C(F)(F)F)c3)CC2)C1`, the activation was inactive: -11.1%.
The result for `CCCCCCCCCCCCCCSCC(=O)O` reads inactive: -6.75% and inactive: -42.7%.
The result for `COc1ncc2nc(-c3cccs3)c(=O)n(C)c2n1` reads inactive: 9.98%.
For `CCCn1cnc2c1c(=O)n(CCCCC(C)=O)c(=O)n2C`, the activation was inactive: -11.7% and inactive: -26.7%.
For the compound `C#C[C@]1(OC(C)=O)CC[C@H]2[C@@H]3CCC4=C/C(=N/O)CC[C@@H]4[C@H]3CC[C@@]21CC`, the activation was inactive: 2.43%.
The result for `O=C(/C=C/C=C/c1ccc2c(c1)OCO2)N1CCCCC1` reads inactive: 6.5%; that for `c1ccc(CNCCNCc2ccccc2)cc1`, inactive: -2.55%.
The result for `COc1ccc2[nH]c(C(=O)c3ccccc3)cc2c1` reads inactive: -11.8%; that for `CC(C)CCC[C@@H](C)[C@H]1CC(=O)C2=C3CC[C@H]4C[C@@H](O)CC[C@]4(C)[C@H]3CC[C@@]21C`, inactive: -20.1%.
The result for `O=c1c2ccccc2nc2n1CCc1c-2[nH]c2ccccc12` reads inactive: -13.3%; that for `CCC(=O)OCC(=O)[C@@]1(OC(=O)CC)[C@@H](C)C[C@H]2[C@@H]3CCC4=CC(=O)C=C[C@]4(C)[C@@]3(Cl)[C@@H](O)C[C@@]21C`, inactive: -0.334%; that for `O=C(O)CCCCCCCCc1cn(CCc2c[nH]c3ccccc23)nn1`, inactive: -23.3%.
For the compound `CC(=O)OC1CC[C@@]2(C)C3=CC(=O)[C@]4(C)C(CC5OC6(OCC(C)CC6Br)C(C)C54)C3CC[C@H]2C1` (stereo partly drawn), the activation was inactive: -10.4%.
